Experimental data from the supplement of paper PMC4967469.
Lines with a small IC50 respond at low doses; a fit beyond the top or the lowest dose is shown as a bound at that dose. AUC sums up the same curve from the lowest dose to the 256-fold higher top dose: 1 means no effect, lower means more sensitive. The top dose, if marked as inferred, was derived from the fitted curves, not read from the paper.

Key:
Experiment in all cases: Viability of human cancer cell lines after 72 h of drug (GDSC screen)
XMD8-92 = compound: CCOc1cc(N2CCC(O)CC2)ccc1Nc1ncc2c(n1)N(C)c1ccccc1C(=O)N2C [XMD8-92]; conditions: top dose 10 µM; top dose inferred
Experimental: (§1)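 Human cancer cell lines in 384-well plates, medium with 10% serum, drug for 72 h over a 256-fold dose range (nine 2-fold or five 4-fold steps up to the top dose). Adherent lines were fixed and stained with the nucleic acid dye Syto60, suspension lines read with resazurin; signal relative to control wells, capped at 0 and 100%. One two-parameter sigmoid per drug and line, fitted in a mixed model over all curves with the slope shared within a line.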

CH5424802 = compound: CCc1cc2c(cc1N1CCC(N3CCOCC3)CC1)C(C)(C)c1[nH]c3cc(C#N)ccc3c1C2=O [CH5424802]; conditions: top dose 5.12 µM; top dose inferred
Experimental: as §1

ACHP (KIN001-260) = compound: N#Cc1c(C2CCNCC2)cc(-c2c(O)cccc2OCC2CC2)nc1N [ACHP (KIN001-260)]; conditions: top dose 20 µM; top dose inferred
Experimental: as §1

CAY10603 = compound: CC(C)(C)OC(=O)Nc1ccc(-c2cc(C(=O)NCCCCCCC(=O)NO)no2)cc1 [CAY10603]; conditions: top dose 20 µM; top dose inferred
Experimental: as §1

Cell Line | AUC (XMD8-92) | IC50 (XMD8-92) [µM] | AUC (CH5424802) | IC50 (CH5424802) [µM] | AUC (ACHP (KIN001-260)) | IC50 (ACHP (KIN001-260)) [µM] | AUC (CAY10603) | IC50 (CAY10603) [µM]
MZ1-PC (pancreas, adherent) | 0.92 | > 10 | 0.957 | > 5.12 | 0.898 | > 20 | 0.455 | 0.913
RCM-1 (large intestine, adherent) | 0.894 | > 10 | 0.982 | > 5.12 | 0.984 | > 20 | 0.688 | 4.74
ABC-1 (lung adenocarcinoma, adherent) | 0.935 | > 10 | 0.976 | > 5.12 | 0.966 | > 20 | 0.521 | 1.45
ES7 (Ewing sarcoma, adherent) | 0.939 | > 10 | 0.816 | 2.93 | 0.815 | 11.4 | 0.214 | 0.175
RKO (large intestine, adherent) | 0.842 | 6.31 | 0.87 | 4.17 | 0.933 | > 20 | 0.49 | 1.18
PL-21 (acute myeloid leukaemia, suspension) | 0.844 | 8.95 | 0.96 | > 5.12 | 0.859 | > 20 | 0.586 | 2.24
KYSE-220 (oesophagus, adherent) | 0.976 | > 10 | 0.977 | > 5.12 | 0.985 | > 20 | 0.682 | 4.16
U-2-OS (osteosarcoma, adherent) | 0.941 | > 10 | 0.968 | > 5.12 | 0.985 | > 20 | 0.44 | 0.847
Mo-T (hairy cell leukaemia, suspension) | 0.898 | > 10 | 0.957 | > 5.12 | 0.59 | 2.22 | 0.361 | 0.511
RPMI-7951 (melanoma, adherent) | 0.929 | > 10 | 0.962 | > 5.12 | 0.954 | > 20 | 0.397 | 0.66
HCC1428 (breast, adherent) | 0.954 | > 10 | 0.972 | > 5.12 | 0.972 | > 20 | 0.615 | 2.67
OVKATE (ovary, adherent) | 0.85 | > 10 | 0.967 | > 5.12 | 0.82 | > 20 | 0.604 | 2.93
OV-17R (ovary, adherent) | 0.802 | 7.45 | 0.946 | > 5.12 | 0.963 | > 20 | 0.436 | 0.779
FTC-133 (thyroid, adherent) | 0.949 | > 10 | 0.985 | > 5.12 | 0.983 | > 20 | 0.78 | 9.09
HCC2998 (large intestine, adherent) | 0.905 | > 10 | 0.975 | > 5.12 | 0.946 | > 20 | 0.708 | 4.73
DMS-114 (small cell lung carcinoma, adherent) | 0.896 | > 10 | 0.981 | > 5.12 | 0.972 | > 20 | 0.775 | 9.16
H2804 (mesothelioma, adherent) | 0.9 | > 10 | 0.964 | > 5.12 | 0.985 | > 20 | 0.632 | 3.01
HCT-116 (large intestine, adherent) | 0.913 | > 10 | 0.984 | > 5.12 | 0.925 | > 20 | 0.373 | 0.568
NCI-H2122 (lung adenocarcinoma, adherent) | 0.953 | > 10 | 0.989 | > 5.12 | 0.984 | > 20 | 0.848 | 13.5
TT2609-C02 (thyroid, adherent) | 0.96 | > 10 | 0.975 | > 5.12 | 0.985 | > 20 | 0.479 | 1.09
MMAC-SF (melanoma, adherent) | 0.863 | 9.29 | 0.987 | > 5.12 | 0.987 | > 20 | 0.576 | 2.04

Cell Line | AUC (XMD8-92) | IC50 (XMD8-92) [µM] | AUC (CH5424802) | IC50 (CH5424802) [µM] | AUC (ACHP (KIN001-260)) | IC50 (ACHP (KIN001-260)) [µM] | AUC (CAY10603) | IC50 (CAY10603) [µM]
TUR (B-cell lymphoma, suspension) | 0.947 | > 10 | 0.978 | > 5.12 | 0.924 | > 20 | 0.336 | 0.455
PEO1 (ovary, adherent) | 0.889 | > 10 | 0.979 | > 5.12 | 0.928 | > 20 | 0.512 | 1.35
D-542MG (glioma, adherent) | 0.919 | > 10 | 0.984 | > 5.12 | 0.984 | > 20 | 0.509 | 1.33
Calu-3 (lung adenocarcinoma, adherent) | 0.879 | > 10 | 0.98 | > 5.12 | 0.983 | > 20 | 0.766 | 9.26
T84 (large intestine, adherent) | 0.949 | > 10 | 0.971 | > 5.12 | 0.954 | > 20 | 0.69 | 4.32
8305C (thyroid, adherent) | 0.892 | > 10 | 0.968 | > 5.12 | 0.972 | > 20 | 0.982 | > 20
SK-MM-2 (myeloma, suspension) | 0.87 | > 10 | 0.967 | > 5.12 | 0.912 | > 20 | 0.53 | 1.51
YH-13 (glioma, adherent) | 0.865 | 9.65 | 0.986 | > 5.12 | 0.971 | > 20 | 0.674 | 3.95
KP-N-YN (neuroblastoma, adherent) | 0.794 | 5.11 | 0.98 | > 5.12 | 0.983 | > 20 | 0.532 | 1.54
SW48 (large intestine, adherent) | 0.868 | 9.09 | 0.971 | > 5.12 | 0.962 | > 20 | 0.589 | 2.18
RS4-11 (leukaemia, suspension) | 0.844 | 6.28 | 0.978 | > 5.12 | 0.909 | > 20 | 0.229 | 0.223
NALM-6 (B-cell leukaemia, suspension) | 0.879 | 7.4 | 0.948 | > 5.12 | 0.829 | 9.77 | 0.264 | 0.304
D-392MG (glioma, adherent) | 0.899 | > 10 | 0.973 | > 5.12 | 0.952 | > 20 | 0.671 | 4.48
C32 (melanoma, adherent) | 0.963 | > 10 | 0.986 | > 5.12 | 0.987 | > 20 | 0.88 | > 20
A253 (head and neck, adherent) | 0.98 | > 10 | 0.988 | > 5.12 | 0.988 | > 20 | 0.76 | 6.9
AGS (stomach, adherent) | 0.846 | 6.21 | 0.99 | > 5.12 | 0.986 | > 20 | 0.507 | 1.3
AsPC-1 (pancreas, adherent) | 0.865 | > 10 | 0.95 | > 5.12 | 0.951 | > 20 | 0.671 | 5.29
ALL-PO (lymphoblastic leukaemia, suspension) | 0.848 | 8.1 | 0.711 | 1.31 | 0.705 | 4.92 | 0.122 | < 0.0781
DoTc2-4510 (cervix, adherent) | 0.894 | > 10 | 0.985 | > 5.12 | 0.984 | > 20 | 0.725 | 5.24
H2795 (mesothelioma, adherent) | 0.96 | > 10 | 0.974 | > 5.12 | 0.945 | > 20 | 0.66 | 3.46
UACC-893 (breast, adherent) | 0.978 | > 10 | 0.938 | > 5.12 | 0.964 | > 20 | 0.738 | 7.73

Cell Line | AUC (XMD8-92) | IC50 (XMD8-92) [µM] | AUC (CH5424802) | IC50 (CH5424802) [µM] | AUC (ACHP (KIN001-260)) | IC50 (ACHP (KIN001-260)) [µM] | AUC (CAY10603) | IC50 (CAY10603) [µM]
RO82-W-1 (thyroid, adherent) | 0.913 | > 10 | 0.983 | > 5.12 | 0.981 | > 20 | 0.593 | 2.42
HCC38 (breast, adherent) | 0.932 | > 10 | 0.985 | > 5.12 | 0.957 | > 20 | 0.588 | 2.22
NCI-H1437 (lung adenocarcinoma, adherent) | 0.946 | > 10 | 0.976 | > 5.12 | 0.969 | > 20 | 0.63 | 2.9
LP-1 (myeloma, suspension) | 0.965 | > 10 | 0.984 | > 5.12 | 0.918 | > 20 | 0.382 | 0.628
OVCAR-8 (ovary, adherent) | 0.886 | 9.06 | 0.989 | > 5.12 | 0.873 | 15.8 | 0.304 | 0.378
TE-5 (oesophagus, adherent) | 0.882 | > 10 | 0.984 | > 5.12 | 0.984 | > 20 | 0.98 | > 20
KYSE-150 (oesophagus, adherent) | 0.983 | > 10 | 0.989 | > 5.12 | 0.982 | > 20 | 0.806 | 9.69
JHH-1 (liver, adherent) | 0.843 | 7.98 | 0.981 | > 5.12 | 0.968 | > 20 | 0.249 | 0.221
SK-LU-1 (lung adenocarcinoma, adherent) | 0.934 | > 10 | 0.747 | 2.03 | 0.961 | > 20 | 0.672 | 4.33
MHH-ES-1 (Ewing sarcoma, adherent) | 0.895 | > 10 | 0.971 | > 5.12 | 0.84 | 13.5 | 0.442 | 0.868
TOV-21G (ovary, adherent) | 0.907 | > 10 | 0.98 | > 5.12 | 0.961 | > 20 | 0.727 | 5.92
LOU-NH91 (lung squamous cell carcinoma, adherent) | 0.909 | > 10 | 0.983 | > 5.12 | 0.986 | > 20 | 0.609 | 2.56
Farage (B-cell lymphoma, suspension) | 0.992 | > 10 | 0.993 | > 5.12 | 0.981 | > 20 | 0.348 | 0.516
DBTRG-05MG (glioma, adherent) | 0.914 | > 10 | 0.983 | > 5.12 | 0.976 | > 20 | 0.667 | 3.98
NCI-H1155 (large cell lung carcinoma, suspension) | 0.948 | > 10 | 0.993 | > 5.12 | 0.989 | > 20 | 0.593 | 2.14
COR-L95 (small cell lung carcinoma, adherent) | 0.985 | > 10 | 0.982 | > 5.12 | 0.972 | > 20 | 0.724 | 6.04
SW1783 (glioma, adherent) | 0.99 | > 10 | 0.989 | > 5.12 | 0.991 | > 20 | 0.627 | 2.69
NCI-H747 (large intestine, adherent) | 0.855 | > 10 | 0.951 | > 5.12 | 0.949 | > 20 | 0.564 | 1.94
SKN (uterus, adherent) | 0.89 | > 10 | 0.867 | > 5.12 | 0.952 | > 20 | 0.604 | 2.57
